About 14,000 (4.5%) of roughly 310,000 compounds showed an effect of 50% or more. Effects have a minus sign here. This is one part of the list.
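Further: peak tail current of the secondary pulse compared with the same well before compound.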

Sequence of human ether-à-go-go-related gene (hERG) potassium channel (Q12809 whole entry, looked up): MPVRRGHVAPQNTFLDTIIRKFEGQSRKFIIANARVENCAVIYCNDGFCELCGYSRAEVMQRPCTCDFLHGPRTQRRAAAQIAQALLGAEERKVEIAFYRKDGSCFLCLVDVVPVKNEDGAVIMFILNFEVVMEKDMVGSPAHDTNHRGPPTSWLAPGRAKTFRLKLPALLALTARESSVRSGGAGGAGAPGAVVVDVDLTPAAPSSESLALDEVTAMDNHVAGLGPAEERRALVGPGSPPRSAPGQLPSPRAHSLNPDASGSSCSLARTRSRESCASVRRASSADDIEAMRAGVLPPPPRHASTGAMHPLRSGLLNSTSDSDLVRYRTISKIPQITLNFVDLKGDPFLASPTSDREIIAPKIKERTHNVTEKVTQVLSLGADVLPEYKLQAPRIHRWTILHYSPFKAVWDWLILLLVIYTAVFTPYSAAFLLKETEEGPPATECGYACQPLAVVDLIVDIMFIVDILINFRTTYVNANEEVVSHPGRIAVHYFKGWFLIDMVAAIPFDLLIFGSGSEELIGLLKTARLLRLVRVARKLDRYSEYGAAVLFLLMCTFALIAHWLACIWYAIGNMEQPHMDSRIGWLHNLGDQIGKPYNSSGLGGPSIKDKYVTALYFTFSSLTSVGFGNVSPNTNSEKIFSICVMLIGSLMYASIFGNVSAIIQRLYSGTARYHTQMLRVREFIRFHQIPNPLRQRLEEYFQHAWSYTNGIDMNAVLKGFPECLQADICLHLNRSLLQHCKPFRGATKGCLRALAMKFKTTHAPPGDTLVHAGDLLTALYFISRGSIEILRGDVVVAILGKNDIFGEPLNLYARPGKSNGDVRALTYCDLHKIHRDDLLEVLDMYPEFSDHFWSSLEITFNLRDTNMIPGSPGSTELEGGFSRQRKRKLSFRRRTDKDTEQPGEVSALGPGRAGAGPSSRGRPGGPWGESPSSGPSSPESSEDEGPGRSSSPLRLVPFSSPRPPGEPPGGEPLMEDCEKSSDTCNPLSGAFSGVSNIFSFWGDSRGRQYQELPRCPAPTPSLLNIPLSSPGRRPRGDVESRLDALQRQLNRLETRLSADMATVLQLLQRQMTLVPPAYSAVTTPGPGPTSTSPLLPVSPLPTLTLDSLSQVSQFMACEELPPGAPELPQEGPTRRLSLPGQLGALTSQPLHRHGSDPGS

The assay addresses human ether-à-go-go-related gene (hERG) potassium channel (human, UniProt Q12809). Put plainly: primary screen, population patch clamp on CHO cells stably expressing hERG.
Turning to `Cn1c(N)c(C(=O)c2ccc(F)cc2F)c(=O)n(C)c1=O`, the “hERG current change (%, negative = inhibition) at 10uM” value turned out to be 16%. In the case of `O=C(NCc1ccco1)C(c1ccco1)N(Cc1cccs1)C(=O)Cn1nnc2ccccc21` (stereo not shown), the “hERG current change (%, negative = inhibition) at 10uM” value is recorded as 10.3%.

As to `COCCNC(=S)N(CCc1c(C)[nH]c2ccc(OC)cc12)Cc1cccnc1`, the “hERG current change (%, negative = inhibition) at 10uM” value is -3.46%.

`CCCC(CCC)c1nnc(NC(=O)c2ccco2)s1`: the “hERG current change (%, negative = inhibition) at 10uM” value was -17%.

On to `Cn1ccc(C(=O)OCC(=O)Nc2cccc3ccccc23)n1`, for which the “hERG current change (%, negative = inhibition) at 10uM” value came to 65%. Regarding `Cc1c(Cc2ccccc2)c(=O)oc2cc(O)cc(O)c12`, the “hERG current change (%, negative = inhibition) at 10uM” value came to 9.65%. `COc1ccc(C(C)(C)C)cc1NC(=O)CCCN1C(=O)NC(C)(C)C1=O`: the “hERG current change (%, negative = inhibition) at 10uM” value is on record as -5.94%.

Take `COc1ccc(OC2CCN(C(=O)Nc3ccc(C)cc3)CC2)cc1`: the “hERG current change (%, negative = inhibition) at 10uM” value was -11.3%.

Regarding `CCOc1ccc(NC(=O)C(C)N2C(=O)c3ccccc3S2(=O)=O)cc1` (stereo not shown), the “hERG current change (%, negative = inhibition) at 10uM” value was found to be 2.37%. Under `CCCOC(=O)c1c(NC(=O)C2CCCO2)sc(C(=O)OC)c1C` (stereo not shown) stands 5.12%; under `CCN(CC)CC(=O)NCC1(c2ccccc2)CCCC1`, -0.324%. On to `CSCCC(NS(=O)(=O)c1ccc(Br)cc1)C(=O)OCC(=O)NC1CC1` (stereo not shown), for which the “hERG current change (%, negative = inhibition) at 10uM” value is -6.42%. Take `C=CCOC(=O)C(=O)/C=C/c1ccc2c(c1)Cc1ccccc1-2`: the “hERG current change (%, negative = inhibition) at 10uM” value came out at 2.11%. As to `O=C(CSc1ccc(Cl)cc1)c1ccco1`, the “hERG current change (%, negative = inhibition) at 10uM” value is listed as 8.93%. As for `COc1ccccc1-c1nnc(NC(=O)C2=COCCO2)o1`, the “hERG current change (%, negative = inhibition) at 10uM” value worked out at 14.3%. For the molecule `Cc1ccc2nc(Nc3ccccc3)cc(C)c2c1`, the “hERG current change (%, negative = inhibition) at 10uM” value is reported as -8.52%. Under `O=[N+]([O-])c1ccc(N=Cc2ccc(Br)c([N+](=O)[O-])c2)cc1` stands -3.59%. For `COc1ccc(N(CC(=O)NCC(C)C)S(=O)(=O)c2ccccc2)cc1`, the “hERG current change (%, negative = inhibition) at 10uM” value was 13.8%. Regarding `Clc1ccc2oc3c(Cl)ncnc3c2c1`, the “hERG current change (%, negative = inhibition) at 10uM” value is given as 6.89%.

With `CC(C)c1nnc(NC(=O)CCC(=O)N2CCN(c3ccc(Cl)cc3)CC2)s1`, the “hERG current change (%, negative = inhibition) at 10uM” value is -18.3%.

For `COc1cc(NC(=O)c2cccs2)c(C(=O)OCC(=O)NCc2ccco2)cc1OC`, the “hERG current change (%, negative = inhibition) at 10uM” value amounted to 0.185%. `OCCCNC(c1ccccc1)c1ccc(O)cc1` (stereo not shown): the “hERG current change (%, negative = inhibition) at 10uM” value is listed as 3.52%. As for `O=c1c2nnn(Cc3ccc(Cl)cc3)c2ncn1Cc1ccc(F)cc1`, the “hERG current change (%, negative = inhibition) at 10uM” value is 10.8%. As for `O=S(=O)(NCc1cc(-c2ccccc2Cl)no1)c1ccc(Cl)cc1`, the “hERG current change (%, negative = inhibition) at 10uM” value is recorded as 3.07%. For the molecule `CSc1ccc(C(=O)C(C)(C)N2CCOCC2)cc1`, the “hERG current change (%, negative = inhibition) at 10uM” value is recorded as -15.5%. For the molecule `CCc1ccc(NC(=O)C2CCN(C(=O)N3CCOc4ccccc43)CC2)cc1`, the “hERG current change (%, negative = inhibition) at 10uM” value is -44.9%. The figure for `Cc1ccccc1NC(=O)CC(=O)c1ccccc1` is 17.1%; for `Cc1nc2c(Cl)cccc2c2c1CC(CBr)O2` (stereo not shown) it is -12.2%. Regarding `COc1cccc(CN(C)CC(=O)Nc2ccccc2C(C)C)c1.O=C(O)C(=O)O`, the “hERG current change (%, negative = inhibition) at 10uM” value is listed as -4.48%. As for `COc1ccc(-c2noc(C3CCCN(C(=O)c4ccccc4OC)C3)n2)cc1` (stereo not shown), the “hERG current change (%, negative = inhibition) at 10uM” value came out at 3.05%. Take `COc1ccccc1NC(=O)CSc1nc(N)c(-c2ccccc2)c(=O)[nH]1`: the “hERG current change (%, negative = inhibition) at 10uM” value is listed as 9.3%. Under `Cn1c(SCC(N)=O)nnc1-c1ccc(S(=O)(=O)N2CCCC2)cc1` stands 4.87%. For `COc1ccccc1/C=C/C(=O)NCC(=O)N/N=C(/C)c1ccco1`, the “hERG current change (%, negative = inhibition) at 10uM” value is on record as 7.74%. Under `O=C(CNS(=O)(=O)c1cccs1)N1CCCCC1` stands 8.2%; under `CCOC(=O)c1cnc2c(C)cccc2c1Nc1cccc(C(=O)O)c1.Cl`, -8.37%. In the case of `O=C(CCNC(=O)C1CCN(S(=O)(=O)c2ccc(F)cc2)CC1)NCc1ccccc1Cl`, the “hERG current change (%, negative = inhibition) at 10uM” value is on record as -12.9%. Under `O=C(CSCc1ccc(Cl)cc1)Nc1ccccc1O` stands 19.2%. The figure for `Cc1c(C(N)=O)c(N)c(C(=O)c2ccccc2)n1-c1ccccc1` is -0.493%; for `O=C(NCc1cccs1)C(Cc1ccccc1)NS(=O)(=O)c1cccs1` (stereo not shown) it is -42.9%; for `COc1ccc(CN2CCCC(CO)(Cc3cccc(Cl)c3)C2)cc1OC` (stereo not shown) it is -63.2%. On to `COCCN(CCOC)C(=O)c1sc2nc(-c3ccccc3)cn2c1C`, for which the “hERG current change (%, negative = inhibition) at 10uM” value is -16.6%. `Cc1nn2c(N3CCOCC3)cc(C(C)(C)C)nc2c1-c1ccccc1`: the “hERG current change (%, negative = inhibition) at 10uM” value was 15.7%. Under `Cc1ccc(CNC(=O)CSc2nc3ccsc3c(=O)n2Cc2ccc(C(=O)O)cc2)cc1` stands 11.7%.

In the case of `O=C1CCC(C(=O)N2CCC(O)(c3ccccc3)CC2)CN1CCc1ccccc1` (stereo not shown), the “hERG current change (%, negative = inhibition) at 10uM” value is reported as -16.3%. Under `CCN(CC)C(=O)c1ccc(NC(=S)NC(=O)CCc2ccccc2)cc1` stands -3.02%.

Regarding `Cn1c(=O)[nH]c(=O)c2c1nc(NCc1ccccc1)n2CC(O)c1ccccc1` (stereo not shown), the “hERG current change (%, negative = inhibition) at 10uM” value is recorded as -6.21%.
